Reference: patent US20250333508A1 (ZHEJIANG NANOMAB TECHNOLOGY CENTER, published 2025)

T1: ICOS. His tag (UniProt Q9Y6W8 21-140, limits assumed)
T1 construct: Bought (ACRO Biosystems); not shown: His tag
T1 sequence (looked up): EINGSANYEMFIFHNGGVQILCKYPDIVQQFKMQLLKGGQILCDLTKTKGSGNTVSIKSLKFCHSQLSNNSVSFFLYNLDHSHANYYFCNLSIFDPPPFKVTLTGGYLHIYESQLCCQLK

T2: human CTLA-4 his tag antigen (human, UniProt P16410 36-161)
T2 construct: Bought (ACRO Biosystems); also called CTLA-4. his tag protein (human); not shown: His tag
T2 sequence (looked up): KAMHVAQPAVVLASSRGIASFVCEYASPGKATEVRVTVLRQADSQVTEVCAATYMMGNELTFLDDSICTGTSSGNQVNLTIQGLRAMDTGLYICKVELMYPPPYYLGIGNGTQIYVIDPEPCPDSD

T3: human CTLA-4 on HEK293T cells expressing CTLA-4 extracellular domain (human, UniProt P16410 36-161)
T3 construct: extracellular domain
T3 sequence (looked up): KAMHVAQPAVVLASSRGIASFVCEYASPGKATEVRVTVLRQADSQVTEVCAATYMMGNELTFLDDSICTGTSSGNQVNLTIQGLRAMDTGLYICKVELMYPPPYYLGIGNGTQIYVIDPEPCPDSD

T4: cynomolgus monkey CTLA-4. his tag protein (cynomolgus monkey, UniProt G7PL88 36-161)
T4 construct: Bought (ACRO Biosystems)
T4 sequence: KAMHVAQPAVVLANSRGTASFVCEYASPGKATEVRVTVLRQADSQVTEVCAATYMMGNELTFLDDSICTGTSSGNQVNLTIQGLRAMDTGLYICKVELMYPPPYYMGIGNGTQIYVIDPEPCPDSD


Columns and labels:
CD28. His tag = target: T5, CD28. His tag (UniProt P10747 19-152, limits assumed); assay: ELISA, coated his-tagged protein
T5 construct: Bought (ACRO Biosystems); not shown: His tag

PD-1. his tag protein = target: T6, PD-1. his tag protein (UniProt Q15116 fragment, limits assumed); assay: ELISA, coated his-tagged protein
T6 construct: Bought (ACRO Biosystems); not shown: His tag

[1] = target: T7, murine CTLA-4. his tag protein (murine, UniProt P09793 36-161); assay: ELISA, coated his-tagged protein
T7 construct: Bought (ACRO Biosystems); also called mouse CTLA-4; not shown: His tag

ICOS. His tag = target: T1, ICOS. His tag; assay: ELISA, coated his-tagged protein
[2] = target: T2, human CTLA-4 his tag antigen; assay: SPR, Ab on protein A, CTLA-4.His in flow
[3] = target: T2, human CTLA-4 his tag antigen; assay: competition ELISA, coated CTLA-4.his, competitor biotinylated B7-1-Fc
[4] = target: T2, human CTLA-4 his tag antigen; assay: SPR, Ab on protein A, CTLA-4.his in flow
[5] = target: T7, murine CTLA-4. his tag protein; assay: ELISA on coated mouse CTLA-4 his tag protein, goat anti-human IgG-Fc HRP; unit from the axis; no upper plateau within the range shown
[6] = target: T3, human CTLA-4 on HEK293T cells …; assay: flow cytometry competition on 293T cells overexpressing CTLA-4, competitor biotinylated B7-1-Fc
[7] = target: T4, cynomolgus monkey CTLA-4. his tag …; assay: ELISA on coated cynomolgus monkey CTLA-4 his tag protein, goat anti-human IgG-Fc HRP; unit from the axis
[8] = target: T2, human CTLA-4 his tag antigen; assay: ELISA on coated human CTLA-4 his tag protein, goat anti-human IgG-Fc HRP; unit from the axis
[9] = target: T3, human CTLA-4 on HEK293T cells …; assay: flow cytometry competition on 293T cells overexpressing CTLA-4; blocked ligand biotin labeled B7-1; the IC50 table has no unit, unit taken from the concentration axis (text says nM and gives the three values to other antibodies)
[10] = target: T3, human CTLA-4 on HEK293T cells …; assay: flow cytometry on 293T cells overexpressing human CTLA-4; the EC50 table has no unit, unit taken from the concentration axis (text says nM)

CD28. His tag, sequence (P10747 19-152 limits assumed): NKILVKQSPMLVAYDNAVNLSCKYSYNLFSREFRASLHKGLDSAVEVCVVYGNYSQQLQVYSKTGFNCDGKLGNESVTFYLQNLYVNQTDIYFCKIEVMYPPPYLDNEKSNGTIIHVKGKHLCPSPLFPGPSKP
PD-1. his tag protein, sequence (Q15116 25-167 limits assumed): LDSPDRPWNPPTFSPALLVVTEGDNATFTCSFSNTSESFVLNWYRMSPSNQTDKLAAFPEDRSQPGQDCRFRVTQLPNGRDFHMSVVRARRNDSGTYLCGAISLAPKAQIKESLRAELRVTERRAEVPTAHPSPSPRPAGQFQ

Row | Binder | binding result (CD28. His tag) | binding result (PD-1. his tag protein) | binding result [1] | binding result (ICOS. His tag) | Kd [2] [nM] | koff [2] [s⁻¹] | kon [2] [M⁻¹ s⁻¹] | IC50 [3] [nM] | Kd [4] [nM] | koff [4] [s⁻¹] | kon [4] [M⁻¹ s⁻¹] | EC50 [5] [nM] | IC50 [6] [nM] | EC50 [7] [nM] | EC50 [8] [nM] | IC50 [9] [µg/mL] | EC50 [10] [µg/mL]
1 | NGS-16 (Fc fusion) QVQLVESGGGLVQPGGSLRLSCEASGGTLDYWSIGWFRQAPGKEREEVSCISGTGLRTNYADSVKGRFTVSRDNSRNSVILQMNSLKPEDTGVYYCTGKLLHPSLWSACANEYDLWGQGTQVTVSS[skipping human IgG4 Fc with S228P (EU numbers)] | no binding (tested: OD450 < 0.3) | no binding (tested: OD450 < 0.3) | no binding (tested: OD450 < 0.3) | no binding (tested: OD450 < 0.3) | 0.42 | 0.00037 | 880000 | 2.28 | 0.42 | 0.00037 | 880000 |  |  |  |  |  | 
2 | NGS-12 (Fc fusion) QVQLVESGGGLVQPGGSLRLSCAVSGFSSDYYDIGWFRQDPEKEREMVSCIRSSGGSTKYADSVKGRFTISRDNAKNTVYLQMNSLEPEDTAVYYCGLAPISPVHAVCNQHYFGYWGQGTRVTVSS[skipping human IgG4 Fc with S228P (EU numbers)] | no binding (tested: OD450 < 0.3) | no binding (tested: OD450 < 0.3) | no binding (tested: OD450 < 0.3) | no binding (tested: OD450 < 0.3) | 1.32 | 0.00025 |  | 0.57 | 1.32 | 0.00025 | 190000 |  |  |  |  |  | 
3 | NB-27-z5 (Fc fusion, Format in the assay not restated) EVQLVESGGGLVQPGGSLRLSCAASGSTLDPFVIGWFRQAPGKERETVACINRSRTSYADSVKGRFTISRDNSKNMVYLQMNSLRAEDTAVYYCAASPDKPFYTDQTMCNKHYYGYWTQGTQVTVSS[skipping human IgG4 Fc with S228P (EU numbers)] |  |  |  |  |  |  |  |  |  |  |  | 2.03 |  | 0.191 |  |  | 
4 | NB-879 (Fc fusion) QVQLVESGGGLVQPGGSLRLSCASSGDTLESFAVGWFRQAPGKEREELACIGRTGEFTDYPGSVKGRFTITRDNAKNTVYLEMVNLKAEDTGVYYCAAERLVFHLCSLSEYDYDTWGQGTQVTVSS[skipping human IgG4 Fc with S228P (EU numbers)] | no binding (tested: OD450 < 0.3) | no binding (tested: OD450 < 0.3) | no binding (tested: OD450 < 0.3) | no binding (tested: OD450 < 0.3) | 14.4 | 0.00133 | 92700 | 55.9 | 2.08 | 0.000168 | 80900 |  |  |  |  |  | 

Continued, values first:

Row | binding result (CD28. His tag) | binding result (PD-1. his tag protein) | binding result [1] | binding result (ICOS. His tag) | Kd [2] [nM] | koff [2] [s⁻¹] | kon [2] [M⁻¹ s⁻¹] | IC50 [3] [nM] | Kd [4] [nM] | koff [4] [s⁻¹] | kon [4] [M⁻¹ s⁻¹] | EC50 [5] [nM] | IC50 [6] [nM] | EC50 [7] [nM] | EC50 [8] [nM] | IC50 [9] [µg/mL] | EC50 [10] [µg/mL] | Binder
5 |  |  |  |  | 0.559 | 0.00038 | 680000 |  |  |  |  | 9.64 | 2.4 | 0.00461 | 0.00292 | 1.83 | 7.8 | NGS-16-z2 (Fc fusion, Format in the assay not restated) EVQLVESGGGLVQPGGSLRLSCAASGGTLDYWSIGWFRQAPGKEREEVSCISGTGLRTNYADSVKGRFTISRDNSKNTVILQMNSLRAEDTAVYYCTGKLLHPSLWSACANEYDLWGQGTQVTVSS[skipping human IgG4 Fc with S228P (EU numbers)]
6 |  |  |  |  | 1.39 | 0.00075 | 540000 |  |  |  |  | 4.3 | 2.6 | 0.0389 | 0.0307 | 2.37 | 9.87 | NGS-12-z1 (Fc fusion, Format in the assay not restated) EVQLVESGGGLVQPGGSLRLSCAASGFSSDYYDIGWFRQAPGKEREMVSCIRSSGGSTKYADSVKGRFTISRDNSKNTVYLQMNSLRAEDTAVYYCGLAPISPVHAVCNQHYFGYWGQGTRVTVSS[skipping human IgG4 Fc with S228P (EU numbers)]
